# According to article PMC4336329 (PLoS ONE, 2015):
# In all, about 310,000 compounds went through this assay and about 14,000 (4.5%) showed an effect of 50% or more. Effects have a minus sign here. Some of the results follow.
# Target: human ether-à-go-go-related gene (hERG) potassium channel (human, UniProt Q12809)
# Experiment: primary screen, population patch clamp on CHO cells stably expressing hERG
# 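Further: peak tail current of the secondary pulse compared with the same well before compound.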
# Chain of human ether-à-go-go-related gene (hERG) potassium channel (Q12809 whole entry, looked up): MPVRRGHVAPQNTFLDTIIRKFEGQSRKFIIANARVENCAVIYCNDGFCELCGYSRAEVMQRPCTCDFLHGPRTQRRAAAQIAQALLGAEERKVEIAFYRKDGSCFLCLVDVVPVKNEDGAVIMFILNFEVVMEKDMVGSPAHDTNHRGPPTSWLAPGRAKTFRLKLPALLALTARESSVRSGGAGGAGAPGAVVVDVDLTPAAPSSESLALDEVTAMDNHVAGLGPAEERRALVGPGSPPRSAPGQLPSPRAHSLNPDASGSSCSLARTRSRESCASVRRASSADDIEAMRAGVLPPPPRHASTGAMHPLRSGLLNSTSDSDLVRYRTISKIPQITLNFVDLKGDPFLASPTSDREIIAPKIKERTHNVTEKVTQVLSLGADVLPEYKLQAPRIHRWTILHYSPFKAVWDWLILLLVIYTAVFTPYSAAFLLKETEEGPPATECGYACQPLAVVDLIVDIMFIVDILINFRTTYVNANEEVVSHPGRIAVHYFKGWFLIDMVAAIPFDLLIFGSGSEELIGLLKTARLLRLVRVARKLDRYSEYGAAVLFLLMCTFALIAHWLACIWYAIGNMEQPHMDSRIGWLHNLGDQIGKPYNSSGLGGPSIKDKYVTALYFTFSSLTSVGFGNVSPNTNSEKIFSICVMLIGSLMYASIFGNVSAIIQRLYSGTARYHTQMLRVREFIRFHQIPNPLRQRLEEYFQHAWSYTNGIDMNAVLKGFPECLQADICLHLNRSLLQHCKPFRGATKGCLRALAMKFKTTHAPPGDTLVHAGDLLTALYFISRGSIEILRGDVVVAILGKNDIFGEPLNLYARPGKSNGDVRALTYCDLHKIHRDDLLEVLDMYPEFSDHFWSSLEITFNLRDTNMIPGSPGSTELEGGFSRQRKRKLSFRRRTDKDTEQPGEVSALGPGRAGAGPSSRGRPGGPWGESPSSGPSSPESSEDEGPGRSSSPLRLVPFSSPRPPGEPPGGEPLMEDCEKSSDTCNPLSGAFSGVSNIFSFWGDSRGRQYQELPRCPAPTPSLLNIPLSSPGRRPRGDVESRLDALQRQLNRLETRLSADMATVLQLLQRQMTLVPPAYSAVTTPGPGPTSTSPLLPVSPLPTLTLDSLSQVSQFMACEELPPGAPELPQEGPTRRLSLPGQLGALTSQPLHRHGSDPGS
row,Compound,"hERG current change (%, negative = inhibition) at 10uM [%]"
1,C[C@@]12C(=O)Nc3ccccc3C(=O)N1[C@H]1c3cc(Br)ccc3OC[C@@H]1[C@@H]2c1ccccc1,-3.69
2,NC(=O)CSc1nnc(SCc2ccc(F)cc2)s1,4.24
3,CCC(C)n1c(=O)c(C(=O)Nc2ccccc2S(N)(=O)=O)c(O)c2ccccc21 (stereo not shown),2.09
4,O=C(O)c1ccc(NS(=O)(=O)c2cc(Cl)sc2Cl)cc1,21.3
5,CCc1nn(CC(=O)NCCN2CCOCC2)c(=O)c2cc3c(OC)cccc3n12,3.51
6,CCCNC1=C(C)C(=O)CC1,15.9
7,Cn1ncc(Cl)c(Oc2ccc(C(C)(C)C)cc2)c1=O,-26
8,COc1cccc(CN2CCN(Cc3ccc(C)o3)CC2CCO)c1 (stereo not shown),-21.2
9,Cc1cc(C)n2nc(C(=O)Nc3c(C)nn(Cc4ccc(F)cc4)c3C)cc2n1,9.47
10,CC(C)COc1cccc(C(=O)Nc2ccc(N3CCOCC3)cc2N2CCOCC2)c1,-14.4
11,Cc1cc(C)nc(NC(N)=S)n1,14.9
12,Cc1cc(NC(=O)c2c(F)cccc2F)n(-c2nc3ccccc3[nH]2)n1,12.4
13,Clc1cccc(Cl)c1CSc1cc2c(nn1)-c1ccccc1CC2,7.7
14,CN(C)CCN(CC1CCCN(Cc2ccccc2F)C1)C(=O)Cc1ccc(F)c(F)c1 (stereo not shown),-22.2
15,CC1=C(C(=O)N2CCCC(C(=O)c3cccc4ccccc34)C2)OCCO1 (stereo not shown),20.8
16,CCc1ccccc1NC(=O)Nc1cccs1,4.68
17,Cc1nn(C)c(C)c1-c1c(C#N)c(N)nc2c1CCCCCC2,-11.3
18,CC(=O)NCCC(=O)Nc1cc(S(=O)(=O)N2CCCCC2)ccc1Oc1ccccc1,-64.9
19,Cc1ccc(SC[C@H](C)CN2CC[C@H](C(C)(C)C)CCC2=O)cc1,-13.9
20,O=S(=O)(N/N=C/c1ccc(N2CCOCC2)cc1)c1ccc(Br)cc1,15.1
21,COc1ccc(N(CC(=O)N2CCc3ccccc3C2)S(C)(=O)=O)cc1OC,-23.1
22,O=C1/C(=C/c2ccco2)SC(=S)N1CCC(=O)N1CCCCC1CCO (stereo not shown),-6.86

row,Compound,"hERG current change (%, negative = inhibition) at 10uM [%]"
1,CCCCOC(=O)C1=C(C)NC(=O)NC1c1cccc([N+](=O)[O-])c1 (stereo not shown),-7.25
2,COc1ccc(CC(=O)Nc2ccc(C(=O)NC(C)(C)C)cc2)cc1OC,12.3
3,Cc1c(-c2ccc(Cl)cc2)[n+](=O)c(-c2ccccc2)cn1[O-],7.91
4,Cc1cc(-n2c(=O)c(C#N)cc3c(=O)n4ccccc4nc32)no1,-17
5,COc1ccc(NC(=O)Cc2ccsc2)c(OC)c1,2.18
6,COCCCNC(=O)CCN1N=C(c2ccccc2)CCC1=O,18
7,Nc1c(N(CCC2=CCCCC2)C(=O)c2ccco2)c(=O)[nH]c(=O)n1Cc1ccccc1,17.1
8,COc1cccc(-c2cc(C(F)(F)F)nc(-n3cncn3)n2)c1,-23.4
9,O=C(NCc1ccco1)c1cc([N+](=O)[O-])cc([N+](=O)[O-])c1,-10.8
10,O=C(NCCCCc1ccccc1)C1CC(c2cc(C(F)(F)F)cc(C(F)(F)F)c2)=NO1 (stereo not shown),18.9
11,CC(NC(=O)c1ccccc1)c1nnc(SCc2nc3ccccc3c(=O)[nH]2)n1C (stereo not shown),14
12,NC(=O)c1ccc(C2SCC(=O)N2Cc2ccccc2)cc1 (stereo not shown),4.87
13,O=[N+]([O-])c1ccc2[nH]c(O)c(N=NC3CCS(=O)(=O)C3)c2c1 (stereo not shown),17.9
14,COc1ccccc1OCC(=O)Nc1oc(-c2ccccc2)c(-c2ccccc2)c1C#N,-2.06
15,O=C(NCc1ccccc1F)C1CCCN(c2cnccn2)C1 (stereo not shown),13.4
16,CCc1cccc(C)c1NC(=O)COC(=O)C1CCN(S(=O)(=O)c2ccccc2)CC1,7.65
17,CCCN(C(=O)C1CSC2(C)CCC(=O)N12)c1c(N)n(Cc2ccccc2)c(=O)[nH]c1=O (stereo not shown),12.2
18,Clc1ccc2c(c1)C(c1ccccc1Cl)=NCc1nnc(Br)n1-2.c1ccccc1,-6.61
19,COc1ccc(NC(=O)CN2CCN(Cc3ccccc3)CC2)cc1,-52.8
20,Cc1nc(N2CCCC2)c2ccsc2n1,-0.855
21,C=CCNC(=S)N(CC)c1cccc2ccccc12,-28.9
22,CCc1ccccc1NC(=O)/C(C#N)=C\c1ccc(Sc2ccccc2)o1,-8.2

row,Compound,"hERG current change (%, negative = inhibition) at 10uM [%]"
1,CCN(CC)c1ccc(N=Cc2ccc([N+](=O)[O-])o2)cc1,-10.3
2,O=C(CSc1nnc(-c2cccs2)n1Cc1ccco1)Nc1ccc2c(c1)OCO2,-14.6
3,O=C(O)CCn1c(SCCOc2ccccc2F)nc2ccccc21,14.6
4,CCCC(=O)Nc1ccc(NC(=O)c2cccc(OC)c2)cn1,-4.71
5,O=C(N/N=C/c1ccc(-c2ccc(S(=O)(=O)Nc3ncccn3)cc2)o1)c1cc2ccccc2cc1O,15.1
6,CCC(NC(=O)c1ccccc1NC(=O)c1ccc(OC)cc1)C(=O)N1CCCC1 (stereo not shown),-6.54
7,COC(=O)Cn1cnc2c1c(=O)n(C)c(=O)n2C,8.74
8,COc1ccc(/C=N/NC(=O)c2cccnc2)c2ccccc12,25.1
9,CCOc1ccc(S(=O)(=O)Nc2ccc3c(c2)c2c(n3S(=O)(=O)c3ccc(OCC)cc3)CCCC2=O)cc1,12.4
10,Cc1ccccc1C(=O)N1CCC(C(=O)Nc2ccc(S(=O)(=O)N3CCOCC3)cc2)CC1,8.3
11,CN(C)c1ccc(S(=O)(=O)N2CCCCC2)cc1NC(=O)C1CSC2(C)CCC(=O)N12 (stereo not shown),-22.3
12,COc1ccc(-c2[nH]c(-c3cc(OC)c4c(c3)OCO4)nc2-c2ccccc2)cc1,-20.3
13,CC(Nc1ccccc1)c1cc(Cl)ccc1O (stereo not shown),-10.6
14,Oc1ccccc1C1CC(c2cccs2)=NC(c2ccc(Cl)cc2)N1 (stereo not shown),20.6
15,COc1ccc([N+](=O)[O-])cc1NC(=O)c1cn(-c2ccc(C)c(C)c2)c(=O)c2ccccc12,7.97
16,Cc1cccc(NC(=O)c2ccc(OC3CSC3)cc2)c1,6.4
17,CCCCC(=O)NC(N1CCCCC1)C(Cl)(Cl)Cl (stereo not shown),-9.58
18,Cc1cccc(NC(=O)CCNS(=O)(=O)c2ccc3[nH]c(=O)oc3c2)c1,1.1
19,Cc1ccc(N(CC(=O)Nc2c(C)cccc2C)S(C)(=O)=O)cc1,1.65
20,CCOCCCNC(=O)c1cc2c(-c3ccc(Cl)cc3)nn(C)c2s1,9.31
21,CC12CCC(C(=O)NC(c3ccccc3)c3ccccc3)(OC1=O)C2(C)C (stereo not shown),-37.2
22,CCCC(=O)c1cn(CC(=O)OC)c2ccccc12,14.5

row,Compound,"hERG current change (%, negative = inhibition) at 10uM [%]"
1,O=C(CCc1ccccc1)NCCC1=CCCCC1,-14.2
2,COc1cccc(C2CC(c3cccs3)=NN2S(C)(=O)=O)c1 (stereo not shown),3.9
3,Cc1cccc(-c2nnc(SCC#N)n2C)c1,13.2
4,O=C(NC1CCCC1)C(NS(=O)(=O)c1cccc2nsnc12)c1ccccc1 (stereo not shown),-10.5
5,CCCCOc1ccc(-n2nc(C)cc2C)nn1,-16.3
6,O=C(CC(C(=O)O)c1ccccc1)Nc1cccc2ccccc12 (stereo not shown),19.6
7,Cc1nn(Cc2ccc(Cl)cc2Cl)c(Cl)c1C(=O)NC1CCCc2ccccc21 (stereo not shown),-6.34
8,COc1ccc(S(=O)(=O)N2CCOC2CNC(=O)C(=O)NCc2ccncc2)cc1 (stereo not shown),3.26
9,CCOC(=O)c1c(C)oc2c(CC(=O)c3ccccc3)c(Cl)c(O)c(O)c12,-9.42
10,CCOC(=O)C1CCN(C(=O)c2cccs2)CC1,12
11,CCn1cc(S(=O)(=O)Nc2cc(F)ccc2C)cn1,11.7
12,CC(=O)Nc1ccc(S(=O)(=O)NC2CCS(=O)(=O)C2)cc1Cl (stereo not shown),1.14
13,COc1cc(C(=O)NCC(=O)OCn2nnc3ccccc3c2=O)cc(OC)c1OC,16.9
14,CC(=O)COc1ccc(-c2csnn2)cc1,8.01
15,COc1cccc(NC(=O)COC(=O)c2c(F)cccc2F)c1,-1.53
16,COc1ccc(NS(=O)(=O)c2ccc(N3CCOCC3)c(NC(=O)c3ccc(F)cc3)c2)cc1,-13
17,O=C(O)CC/C(=N\NC(=O)c1ccc(F)cc1)c1ccc(Br)cc1,4.33
18,Cc1cc(N=NC(=O)c2ccccc2O)c2ccccc2c1O,3.93
19,O=C1CN(C(=O)COC(=O)C2CC(=O)N(Cc3ccco3)C2)c2ccccc2N1 (stereo not shown),-7.99
20,Cc1ccc(NC(=O)CSc2nnc(CNC(=O)c3ccccc3F)o2)cc1Cl,5.07
21,Cc1ccccc1NC(=S)N(CCN(C)C)C(C)c1ccccn1 (stereo not shown),-8.78
22,O=C(NCCc1cccc(C(F)(F)F)c1)C1CCC(=O)N(C2CC2)C1 (stereo not shown),3.12
